# Data published in PMC4336329 (PLoS ONE, 2015).
# Hit rate of the full screen: of about 310,000 compounds, about 14,000 (4.5%) showed an effect of 50% or more. The effect is printed as a negative number. The list shows a part of the results.
# Target: human ether-à-go-go-related gene (hERG) potassium channel (human, UniProt Q12809)
# Assay: primary screen, population patch clamp on CHO cells stably expressing hERG
# 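Further: peak tail current of the secondary pulse compared with the same well before compound.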
# Sequence of human ether-à-go-go-related gene (hERG) potassium channel (Q12809 whole entry, looked up): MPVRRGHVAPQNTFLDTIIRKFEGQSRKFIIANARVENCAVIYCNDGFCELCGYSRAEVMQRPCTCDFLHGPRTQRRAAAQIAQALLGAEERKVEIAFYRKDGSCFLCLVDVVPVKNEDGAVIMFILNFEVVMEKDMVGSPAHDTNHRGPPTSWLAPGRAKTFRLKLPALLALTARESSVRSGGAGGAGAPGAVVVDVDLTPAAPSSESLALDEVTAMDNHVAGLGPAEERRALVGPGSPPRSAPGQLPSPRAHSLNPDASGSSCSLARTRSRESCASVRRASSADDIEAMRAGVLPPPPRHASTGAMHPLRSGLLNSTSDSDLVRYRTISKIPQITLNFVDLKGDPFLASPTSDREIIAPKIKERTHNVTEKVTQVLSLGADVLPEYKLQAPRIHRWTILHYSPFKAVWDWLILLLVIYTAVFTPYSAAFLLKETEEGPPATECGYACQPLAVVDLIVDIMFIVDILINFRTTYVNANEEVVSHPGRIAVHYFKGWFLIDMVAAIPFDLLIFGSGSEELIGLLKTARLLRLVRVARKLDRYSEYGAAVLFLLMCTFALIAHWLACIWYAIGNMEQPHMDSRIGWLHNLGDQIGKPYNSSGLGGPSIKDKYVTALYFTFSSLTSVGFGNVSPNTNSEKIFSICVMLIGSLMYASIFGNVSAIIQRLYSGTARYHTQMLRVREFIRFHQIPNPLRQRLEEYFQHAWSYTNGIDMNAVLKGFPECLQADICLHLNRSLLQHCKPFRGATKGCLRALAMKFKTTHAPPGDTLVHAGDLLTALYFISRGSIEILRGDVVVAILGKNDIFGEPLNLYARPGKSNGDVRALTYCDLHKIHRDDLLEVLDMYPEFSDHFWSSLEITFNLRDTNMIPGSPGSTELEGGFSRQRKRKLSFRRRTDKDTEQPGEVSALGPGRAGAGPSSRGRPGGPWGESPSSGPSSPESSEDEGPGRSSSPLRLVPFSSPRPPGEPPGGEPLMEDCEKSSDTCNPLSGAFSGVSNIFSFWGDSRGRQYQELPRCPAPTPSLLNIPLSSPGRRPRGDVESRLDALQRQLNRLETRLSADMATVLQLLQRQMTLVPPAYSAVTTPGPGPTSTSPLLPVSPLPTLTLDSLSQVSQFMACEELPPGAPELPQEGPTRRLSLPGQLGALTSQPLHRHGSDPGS
row,Structure (SMILES),"hERG current change (%, negative = inhibition) at 10uM [%]"
1,CCOc1ccccc1NC(=O)C(OC(=O)c1cc(C)oc1C)c1ccccc1 (centres unmarked),4.39
2,COc1cccc(C(=O)NCCS(=O)(=O)N2CCCCC2)c1,6.47
3,CC(=O)c1c(C)n(CC2CCCO2)c2ccc(O)cc12 (centres unmarked),17.4
4,COc1ccc(NC(=O)c2c(C)nn(Cc3ccccc3)c2Cl)cc1S(=O)(=O)N1CCOCC1,1.76
5,CC(C)OCC(O)CN1CCN(CC(O)COc2ccc3c(c2)OCO3)CC1 (centres unmarked),-33.3
6,COc1ccc(NC(=O)c2ccccc2NS(C)(=O)=O)cc1OC,20.1
7,CC(NC(=S)Nc1cccc(C(F)(F)F)c1)C(C)(C)C (centres unmarked),5.04
8,CC1(C)Cc2c(sc3nc(-c4cc5ccccc5o4)n(N)c(=O)c23)CO1,-1.17
9,CCN1C(=O)C(CC(=O)Nc2ccccc2Cl)N(NC(=O)c2cccc(F)c2)C1=S (centres unmarked),2.59
10,Cc1ccc(C)c(NC(=O)CN(C)C(=O)c2cc([N+](=O)[O-])ccc2N2CCOCC2)c1,-1.96
11,Cc1cc(OCC(=O)N[C@H](C(=O)O)c2ccccc2)c2c3c(c(=O)oc2c1)CCC3,12.1
12,Cc1cccc(CNS(=O)(=O)c2ccc(-c3cnc(C4CC4)o3)cc2)c1,23.3
13,O=C(CCS(=O)(=O)c1cccc2nonc12)N1CCCc2ccccc21,-8.24
14,COc1cc(/C=N/NC(=O)CN2CCOCC2)ccc1OCc1ccccc1,5.45
15,Oc1ccccc1/C=N/Nc1nccnc1Cl,-0.0796
16,Cc1ccc(OCC(O)CN2CCN(CCO)CC2)c(C)c1.Cl (centres unmarked),4.18
17,CCN(CC)c1ccc(S(=O)(=O)N2CCOCC2)cc1NC(=O)CN1CCc2ccccc2C1,1.56
18,CN(C)CCCNC(=O)CCc1nc2ccccc2c(=O)[nH]1,-12.2
19,Cn1c(O)c(C2=c3ccccc3=NC2=O)[nH]c1=S,11.8
20,CSc1nc(NCCCO)c2c3c(sc2n1)CN(C)CC3,-47.4
21,Cc1onc(-c2ccccc2)c1NC(=O)Nc1ccc(OC(F)F)cc1,-37.1
22,O=C(NNC(=O)C1CCCC1)c1ccccc1F,17.3

row,Structure (SMILES),"hERG current change (%, negative = inhibition) at 10uM [%]"
1,CC(=O)N1C(C)(C)CC(=NOC(=O)c2ccccc2)CC1(C)C,14.6
2,O=S(=O)(NCc1ccc2c(c1)OCO2)c1cccc2nsnc12,-21.5
3,COCCCNC(=O)COc1ccc(S(=O)(=O)NCc2ccccc2)cc1Cl,-10.6
4,COc1cc(/C=C2\C(=N)N3N=C(N4CCOCC4)SC3=NC2=O)ccc1OC(=O)c1ccccc1,19.5
5,COc1ccc(C(=O)Nc2ccc(N3CCN(C(C)=O)CC3)cc2)cc1[N+](=O)[O-],11.7
6,Cc1ccc(SCC(=O)OCC(=O)NCCC2=CCCCC2)cc1,1.77
7,CC(C)(C)OC(=O)NCCCCCc1nnc(SCC(=O)Nc2cccc(Cl)c2)o1,-50.7
8,Cc1ccc(-n2c(SCC(=O)N3CCCCC3)nc(O)cc2=O)cc1,16.1
9,O=C(Cc1nnc(NC(=O)Nc2ccc(Cl)cc2)s1)NCc1ccccc1,-0.286
10,CCCC(=O)N=C1SC2CS(=O)(=O)CC2N1c1ccc(C(C)=O)cc1 (centres unmarked),-21.8
11,COc1cc(/C=C/C(=O)OCC(=O)c2c(N)n(C)c(=O)n(C)c2=O)ccc1OC(F)F,6.4
12,C/C(CC(c1ccccc1)c1c(O)c2ccccc2oc1=O)=N\Nc1ccc([N+](=O)[O-])cc1[N+](=O)[O-] (centres unmarked),-0.104
13,O=C(Nc1ccc(N2CCN(C(=O)c3ccco3)CC2)c(Cl)c1)c1c(F)c(F)c(F)c(F)c1F,-32.1
14,CC(C)C(=O)Nc1cccc(C(=O)Nc2ccc(S(=O)(=O)Nc3nccs3)cc2)c1,8.32
15,O=C(Nc1ccncc1)c1cc2ccccc2o1,-15
16,Cc1cc(C)nc(Sc2ccc([N+](=O)[O-])cc2[N+](=O)[O-])n1,6.47
17,CCOc1cc(C(C(=O)NCC2CCCO2)N(C(=O)Cn2nnc3ccccc32)c2ccccc2OC)ccc1O (centres unmarked),1.54
18,COCCNC(=O)NC(=O)COC(=O)C1(c2ccc(Cl)cc2)CC1,21.4
19,O=C(/C=C/c1ccccc1)c1c(O)n(CCc2ccccc2)c(=O)[nH]c1=O,3.08
20,CCOC(=O)NC1(NC(C)C)Oc2ccccc2O1,14.2
21,O=C(CN1CCN(Cc2ccc(Cl)cc2)C1=O)NCCCN1CCOCC1,-2.85
22,COc1ccc(CN2[C@@H](CC(=O)O)c3cc(C(F)(F)F)ccc3S2(=O)=O)cc1,16.9

row,Structure (SMILES),"hERG current change (%, negative = inhibition) at 10uM [%]"
1,O=C(COc1ccc(Br)cc1)Nc1nnc(-c2cccnc2)s1,7.67
2,CC1CN=C(NCCc2ccccc2)S1 (centres unmarked),2
3,O=C(NCc1ccc2c(c1)OCO2)c1ccc(=O)[nH]c1,1.61
4,Cc1cc(C)n2nc(CNS(=O)(=O)c3ccc([N+](=O)[O-])cc3)nc2n1,-18.6
5,O=C(COC(=O)c1ccc2[nH]c3c(c2c1)CCCC3)Nc1ccc(Cl)cc1Cl,-2.62
6,Cc1cccn2c(CN[C@@H]3CCCC[C@H]3c3ccccc3)c(C(=O)N3CCOCC3)nc12,-12.9
7,CCOC(=O)C1CCCN(Cc2c(C(=O)N3CCOCC3)nc3ccccn23)C1 (centres unmarked),8.12
8,COc1cccc(OC)c1OCCOc1ccccc1OC(C)C,-24.4
9,O=C(NC(=S)Nc1ccccc1N1CCOCC1)c1ccco1,9.73
10,CCC(=O)O[C@@H]1[C@@H](OC(C)=O)[C@@]2(O)C(C[C@H](O)C2(C)C)[C@](C)(O)[C@H]2CC[C@@H]3[C@@H](O)[C@]12C[C@@]3(C)O (some centres unmarked),1.61
11,CC(C)CN1C(=O)/C(=C/c2cccs2)NC1=S,21.3
12,CCn1c(C(=O)N2CCC(C(=O)N3CCN(c4ccccn4)CC3)CC2)cc2sccc21,-60.5
13,CCOC(=O)c1ccc(N2C(=O)C=CC2=O)cc1,-5.04
14,O=C(COc1ccccc1)NC1CCN(Cc2ccccc2)CC1,-50.4
15,CCc1ccc(NC(=O)C2CCN(S(=O)(=O)c3ccc4c(c3)NC(=O)CO4)CC2)cc1,9.11
16,CCN(CC(=O)NC1CC1)S(=O)(=O)c1ccc(C)cc1,1.04
17,O=C(NC1CC1)C1=C[C@@H](c2csc3ccccc23)C[C@@H](OCCCCO)O1,-40
18,O=C(CC1NCCNC1=O)Nc1ccc([N+](=O)[O-])cc1 (centres unmarked),5.02
19,Cn1c(N)c(C(=O)COC(=O)CCOc2ccc(C(C)(C)C)cc2)c(=O)n(C)c1=O,-60.6
20,CN(C)/C=C1\SC(=S)N(c2ccc(Br)cc2)C1=O,-4.75
21,CC(C)(C)c1ccc(-c2nnc(SCC(=O)c3ccc4c(c3)OCCO4)o2)cc1,12.3
22,C[C@]1(C(=O)O)C=C[C@@H](Cc2ccccc2)N1C(=O)c1ccccc1,11.8

row,Structure (SMILES),"hERG current change (%, negative = inhibition) at 10uM [%]"
1,CC(=N\NC(=O)c1ccccc1)/C(=N/O)C(=O)Nc1ccccc1,7.51
2,COc1ccc(N2C(=O)CCC2(C#N)c2ccc(Br)cc2)cc1 (centres unmarked),-19.6
3,CSc1ccc(C2NC(=O)CCC2[N+](=O)[O-])cc1 (centres unmarked),-6.37
4,Cc1ccccc1OCCCC(=O)NCc1ccco1,1.25
5,S=C(Nc1cccc(Cl)c1)Nc1cccc2cnccc12,-11.2
6,Cc1ccc2c(c1)CN1CN2Cc2cc(C)ccc21,-2.19
7,C[C@@H]([C@@H](O)c1ccccc1)N(C)C(=O)Cc1ccccc1,4.06
8,COc1cc(OC)cc(C(=O)NCC(=O)Nc2ccc(C)c(Cl)c2)c1,16.6
9,CC(=O)Nc1cc(N=Cc2ccc(O)cc2O)c(Cl)cc1Cl,13.4
10,N#C/C(=C\c1cccnc1)C(=O)Nc1ccccc1[N+](=O)[O-],-2.35
11,O=C(/C=C/c1ccccc1O)c1ccc(Cl)cc1,25.3
12,COCCn1cc(C(=O)c2ccccc2OCC(=O)Nc2cc(C)on2)cc(C#N)c1=O,10.3
13,Cc1ccc(C(=O)N/C(=C\c2ccc(F)cc2)C(=O)NCc2ccncc2)cc1,-75.9
14,C=CCn1c(SCC(=O)NCC(c2ccccc2)N(C)C)nnc1C1CCCCC1 (centres unmarked),8.62
15,COc1ccc(-c2csc(N3CCOCC3)n2)cc1OC,-5.19
16,O=C(Nc1cccc(C(=O)O)c1)/C(=C\c1ccccc1Cl)NC(=O)c1ccco1,6.89
17,CSCCNC(=O)c1ccc(C(C)(C)C)cc1,-2
18,O=C(Nc1ccc2c(c1)CCC2)c1ccc(Br)o1,-17.2
19,CCc1ccccc1NC(=O)CCCN1C(=O)C2CC=CCC2C1=O (centres unmarked),12
20,Cc1ccc(F)cc1NC(=O)N1CCN(c2ccnc3cc(Cl)ccc23)CC1,-67
